# Results as given in the supplement of paper PMC8728848.
# This is one part of the list.
# B1: CFEM-CGl (Candida glabrata), Q6FRS0 (protein)
# chain: VLATPPACLLACVAQVSKQSSQCHTLNQVGCFCENENTAIKNCLDSICPNGNSDAAYTAFKNSCGDVGKAVASV
# What was measured:
# Test in all cases: glycan array binding signal (z-score within array); higher = stronger binding
# Settings in all cases: glycan notation: IUPAC condensed, linker removed
# [1] = target: Gal(b1-4)GlcNAc(b1-2)Man(a1-6)[GlcNAc(b1-2)Man(a1-3)]Man(b1-4)GlcNAc(b1-4)GlcNAc
# Procedure, shortened: (§1)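 The binding signal is a Z-score computed within each array. Data were drawn from 3228 arrays in the Consortium for Functional Glycomics database, restricted to those with a known protein sequence. Scores were averaged over arrays of the same protein sequence at different concentrations or buffers, and over linkers, and negative values can be taken as non-binding.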
# [2] = target: Gal(b1-4)GlcNAc(b1-2)Man(a1-6)[Man(a1-3)]Man(b1-4)GlcNAc(b1-4)GlcNAc
# Procedure, shortened: as §1
# [3] = target: Gal(b1-4)GlcNAc(b1-2)[Gal(b1-4)GlcNAc(b1-4)]Man(a1-3)[Gal(b1-4)GlcNAc(b1-2)Man(a1-6)]Man(b1-4)GlcNAc(b1-4)GlcNAc
# Procedure, shortened: as §1
# [4] = target: Gal(b1-4)GlcNAc(b1-2)[Gal(b1-4)GlcNAc(b1-4)]Man(a1-3)[Gal(b1-4)GlcNAc(b1-2)[Gal(b1-4)GlcNAc(b1-6)]Man(a1-6)]Man(b1-4)GlcNAc(b1-4)GlcNAc
# Procedure, shortened: as §1
# [5] = target: Gal(b1-4)GlcNAc(b1-2)[Gal(b1-4)GlcNAc(b1-4)]Man(a1-3)[GlcNAc(b1-4)][Gal(b1-4)GlcNAc(b1-2)Man(a1-6)]Man(b1-4)GlcNAc(b1-4)GlcNAc
# Procedure, shortened: as §1
# [6] = target: Gal(b1-4)GlcNAc(b1-2)[Gal(b1-4)GlcNAc(b1-4)]Man(a1-3)[GlcNAc(b1-4)][Gal(b1-4)GlcNAc(b1-2)[Gal(b1-4)GlcNAc(b1-6)]Man(a1-6)]Man(b1-4)GlcNAc(b1-4)GlcNAc
# Procedure, shortened: as §1
# [7] = target: Gal(b1-4)GlcNAc(b1-2)[Gal(b1-4)GlcNAc(b1-6)]Man(a1-6)[Gal(b1-4)GlcNAc(b1-2)Man(a1-3)]Man(b1-4)GlcNAc(b1-4)GlcNAc
# Procedure, shortened: as §1
# [8] = target: Gal(b1-4)GlcNAc(b1-2)[Gal(b1-4)GlcNAc(b1-6)]Man(a1-6)[Gal(b1-4)GlcNAc(b1-2)Man(a1-3)]Man(b1-4)GlcNAc(b1-4)[Fuc(a1-6)]GlcNAc
# Procedure, shortened: as §1
# [9] = target: Gal(b1-4)GlcNAc(b1-2)[Gal(b1-4)GlcNAc(b1-6)]Man(a1-6)[GlcNAc(b1-4)][Gal(b1-4)GlcNAc(b1-2)Man(a1-3)]Man(b1-4)GlcNAc(b1-4)GlcNAc
# Procedure, shortened: as §1
# [10] = target: Gal(b1-4)GlcNAc(b1-2)[Gal(b1-4)GlcNAc(b1-6)]Man(a1-6)[GlcNAc(b1-4)][Gal(b1-4)GlcNAc(b1-2)[Gal(b1-4)GlcNAc(b1-4)]Man(a1-3)]Man(b1-4)GlcNAc(b1-4)[Fuc(a1-6)]GlcNAc
# Procedure, shortened: as §1
# [11] = target: Gal(b1-4)GlcNAc(b1-3)Gal(b1-3)GalNAc
# Procedure, shortened: as §1
# [12] = target: Gal(b1-4)GlcNAc(b1-3)Gal(b1-3)GlcNAc
# Procedure, shortened: as §1
# [13] = target: Gal(b1-4)GlcNAc(b1-3)Gal(b1-4)Glc
# Procedure, shortened: as §1
# [14] = target: Gal(b1-4)GlcNAc(b1-3)Gal(b1-4)GlcNAc
# Procedure, shortened: as §1
# [15] = target: Gal(b1-4)GlcNAc(b1-3)Gal(b1-4)GlcNAc(b1-2)Man(a1-3)[Gal(b1-4)GlcNAc(b1-3)Gal(b1-4)GlcNAc(b1-2)Man(a1-6)]Man(b1-4)GlcNAc(b1-4)GlcNAc
# Procedure, shortened: as §1
# [16] = target: Gal(b1-4)GlcNAc(b1-3)Gal(b1-4)GlcNAc(b1-2)Man(a1-3)[Gal(b1-4)GlcNAc(b1-3)Gal(b1-4)GlcNAc(b1-2)Man(a1-6)]Man(b1-4)GlcNAc(b1-4)[Fuc(a1-6)]GlcNAc
# Procedure, shortened: as §1
# [17] = target: Gal(b1-4)GlcNAc(b1-3)Gal(b1-4)GlcNAc(b1-2)[Gal(b1-4)GlcNAc(b1-3)Gal(b1-4)GlcNAc(b1-6)]Man(a1-6)[Gal(b1-4)GlcNAc(b1-3)Gal(b1-4)GlcNAc(b1-2)Man(a1-3)]Man(b1-4)GlcNAc(b1-4)GlcNAc
# Procedure, shortened: as §1
# [18] = target: Gal(b1-4)GlcNAc(b1-3)Gal(b1-4)GlcNAc(b1-2)[Gal(b1-4)GlcNAc(b1-3)Gal(b1-4)GlcNAc(b1-6)]Man(a1-6)[Gal(b1-4)GlcNAc(b1-3)Gal(b1-4)GlcNAc(b1-2)Man(a1-3)]Man(b1-4)GlcNAc(b1-4)[Fuc(a1-6)]GlcNAc
# Procedure, shortened: as §1
# [19] = target: Gal(b1-4)GlcNAc(b1-3)Gal(b1-4)GlcNAc(b1-3)Gal(b1-4)GlcNAc
# Procedure, shortened: as §1
# [20] = target: Gal(b1-4)GlcNAc(b1-3)Gal(b1-4)GlcNAc(b1-3)Gal(b1-4)GlcNAc(b1-2)Man(a1-3)[Gal(b1-4)GlcNAc(b1-3)Gal(b1-4)GlcNAc(b1-3)Gal(b1-4)GlcNAc(b1-2)Man(a1-6)]Man(b1-4)GlcNAc(b1-4)GlcNAc
# Procedure, shortened: as §1
# [21] = target: Gal(b1-4)GlcNAc(b1-3)Gal(b1-4)GlcNAc(b1-3)Gal(b1-4)GlcNAc(b1-2)Man(a1-3)[Gal(b1-4)GlcNAc(b1-3)Gal(b1-4)GlcNAc(b1-3)Gal(b1-4)GlcNAc(b1-2)Man(a1-6)]Man(b1-4)GlcNAc(b1-4)[Fuc(a1-6)]GlcNAc
# Procedure, shortened: as §1
# [22] = target: Gal(b1-4)GlcNAc(b1-3)Gal(b1-4)GlcNAc(b1-3)Gal(b1-4)GlcNAc(b1-2)[Gal(b1-4)GlcNAc(b1-3)Gal(b1-4)GlcNAc(b1-3)Gal(b1-4)GlcNAc(b1-6)]Man(a1-6)[Gal(b1-4)GlcNAc(b1-3)Gal(b1-4)GlcNAc(b1-3)Gal(b1-4)GlcNAc(b1-2)Man(a1-3)]Man(b1-4)GlcNAc(b1-4)[Fuc(a1-6)]GlcNAc
# Procedure, shortened: as §1
binder,measurement,setting,value
B1,glycan array binding signal (z-score),[1],-0.319
same,glycan array binding signal (z-score),[2],-0.336
same,glycan array binding signal (z-score),[3],0.018
same,glycan array binding signal (z-score),[4],-0.351
same,glycan array binding signal (z-score),[5],-0.374
same,glycan array binding signal (z-score),[6],-0.386
same,glycan array binding signal (z-score),[7],-0.525
same,glycan array binding signal (z-score),[8],-0.262
same,glycan array binding signal (z-score),[9],-0.456
same,glycan array binding signal (z-score),[10],-0.322
same,glycan array binding signal (z-score),[11],-0.021
same,glycan array binding signal (z-score),[12],0.044
same,glycan array binding signal (z-score),[13],-0.186
same,glycan array binding signal (z-score),[14],-0.288
same,glycan array binding signal (z-score),[15],4.99
same,glycan array binding signal (z-score),[16],0.055
same,glycan array binding signal (z-score),[17],0.983
same,glycan array binding signal (z-score),[18],0.121
same,glycan array binding signal (z-score),[19],-0.333
same,glycan array binding signal (z-score),[20],1.2
same,glycan array binding signal (z-score),[21],0.099
same,glycan array binding signal (z-score),[22],0.152
